# Source: patent US20250092151A1 (ALTRUBIO, published 2025)
# B1: h15A7H V4-V2-g4pFc (antibody, human IgG4 S228P)
# chain: DIQMTQSPSSLSASVGDRVTITCRSSQSIVHNDGNTYFEWYQQKPGKAPKLLIYKVSNRFSGVPSRFSGSGSGTHFTLTISSLQPEDFATYYCFQGSYVPLTFGCGTKVEIKGGGGSGGGGSGGGGSGGGGSGGGGSEVQLVESGGGLVQPGGSLRLSCAASGFTFSSFGMHWVRQAPGKCLEWVAYINGGSSTIFYANAVKGRFTISRDNAKNTLYLQMNSLRAEDTAVYYCARYASYGGGAMDYWGQGTLVTVSSASTGSEVQLVESGGGLVQPGGSLRLSCAASGFTFSSFGMHWVRQAPGKCLEWVAYINGGSSTIFYANAVKGRFTISRDNAKNTLYLQMNSLRAEDTAVYYCARYASYGGGAMDYWGQGTLVTVSSGGGGSGGGGSGGGGSGGGGSGGGGSDIQMTQSPSSLSASVGDRVTITCRSSQSIVHNDGNTYFEWYQQKPGKAPKLLIYKVSNRFSGVPSRFSGSGSGTHFTLTISSLQPEDFATYYCFQGSYVPLTFGCGTKVEIKGGGGSAAA[omitted - human IgG4 Fc with S228P (EU numbers)]
# notes: Tetravalent: a dimer of two tandem scFv units (v4 VL-VH then v2 VH-VL, both disulfide-constrained), each fused to human IgG4 Fc with the hinge mutation; also called taFv2-Fc (v4-v2)
# B2: h15A7H LH10-g4pFc (antibody, human IgG4 S228P)
# chain: DIQMTQSPSSLSASVGDRVTITCRSSQSIVHNDGNTYFEWYQQKPGKAPKLLIYKVSNRFSGVPSRFSGSGSGTHFTLTISSLQPEDFATYYCFQGSYVPLTFGQGTKVEIKGGGGSGGGGSEVQLVESGGGLVQPGGSLRLSCAASGFTFSSFGMHWVRQAPGKGLEWVAYINGGSSTIFYANAVKGRFTISRDNAKNTLYLQMNSLRAEDTAVYYCARYASYGGGAMDYWGQGTLVTVSSGGGGSGGGGSGGGGSGGGGSGGGGSDIQMTQSPSSLSASVGDRVTITCRSSQSIVHNDGNTYFEWYQQKPGKAPKLLIYKVSNRFSGVPSRFSGSGSGTHFTLTISSLQPEDFATYYCFQGSYVPLTFGQGTKVEIKGGGGSGGGGSEVQLVESGGGLVQPGGSLRLSCAASGFTFSSFGMHWVRQAPGKGLEWVAYINGGSSTIFYANAVKGRFTISRDNAKNTLYLQMNSLRAEDTAVYYCARYASYGGGAMDYWGQGTLVTVSSGGGGSAAA[omitted - human IgG4 Fc with S228P (EU numbers)]
# notes: Tetravalent: a dimer of two single-chain diabodies (VL-VH-VL-VH), each fused to human IgG4 Fc with the hinge mutation; also called scDb2-Fc
# B3: h15A7H V2-V3-g4pFc (antibody, human IgG4 S228P)
# chain: EVQLVESGGGLVQPGGSLRLSCAASGFTFSSFGMHWVRQAPGKCLEWVAYINGGSSTIFYANAVKGRFTISRDNAKNTLYLQMNSLRAEDTAVYYCARYASYGGGAMDYWGQGTLVTVSSGGGGSGGGGSGGGGSGGGGSGGGGSDIQMTQSPSSLSASVGDRVTITCRSSQSIVHNDGNTYFEWYQQKPGKAPKLLIYKVSNRFSGVPSRFSGSGSGTHFTLTISSLQPEDFATYYCFQGSYVPLTFGCGTKVEIKASTGSDIQMTQSPSSLSASVGDRVTITCRSSQSIVHNDGNTYFEWYQQKPGKAPKLLIYKVSNRFSGVPSRFSGSGSGTHFTLTISSLQPEDFATYYCFQGSYVPLTFGQGTKVEIKGGGGSGGGGSGGGGSGGGGSGGGGSEVQLVESGGGLVQPGGSLRLSCAASGFTFSSFGMHWVRQAPGKGLEWVAYINGGSSTIFYANAVKGRFTISRDNAKNTLYLQMNSLRAEDTAVYYCARYASYGGGAMDYWGQGTLVTVSSGGGGSAAA[omitted - human IgG4 Fc with S228P (EU numbers)]
# notes: Tetravalent: a dimer of two tandem scFv units (v2 VH-VL, disulfide-constrained, then v3 VL-VH), each fused to human IgG4 Fc with the hinge mutation; also called taFv2-Fc (v2-v3)
# Target: T1, human P-selectin glycoprotein ligand-1 (PSGL-1), expressed on Sp2/0-hPSGL-1 cells (human, UniProt Q14242 42-412)
# T1 construct: Sp2/0 cells transfected with human PSGL-1; also called human PSGL-1; SELPLG
# T1 sequence: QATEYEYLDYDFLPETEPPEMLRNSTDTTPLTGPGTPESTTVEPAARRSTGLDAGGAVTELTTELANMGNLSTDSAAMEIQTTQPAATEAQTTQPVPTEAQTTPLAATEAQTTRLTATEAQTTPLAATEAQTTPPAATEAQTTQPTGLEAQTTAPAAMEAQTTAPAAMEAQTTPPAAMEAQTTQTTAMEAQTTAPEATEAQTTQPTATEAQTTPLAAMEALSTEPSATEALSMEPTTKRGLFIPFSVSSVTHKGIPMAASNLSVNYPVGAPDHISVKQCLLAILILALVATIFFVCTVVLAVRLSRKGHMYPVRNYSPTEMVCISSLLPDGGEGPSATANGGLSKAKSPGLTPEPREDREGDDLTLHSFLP
# Experiment: flow cytometry on Sp2/0-hPSGL-1 cells, antibody at 0.1 µg/mL
# Procedure: (§1) Sp2/0 cells transfected with human PSGL-1 (Sp2/0-hPSGL1) were used as the PSGL-1 expressing cell line. Sp2/0-hPSGL1 cells were centrifuged at 1200 rpm for 5 min. The cell pellets were resuspended in FACS buffer (PBS containing 1% FBS) and pipetted into 96 well plate (1×10⁵ cells/well). To each well was added 100 μl of supernatants containing humanized 15A7H (h15A7H)/tetravalent antibodies, and these were incubated for 60 min at 4° C. The cells were washed three times with cold FACS buffer and then incubated with 100 μl of Mouse Anti-Human IgG₄ pFc′-PE (SouthernBiotech Cat. no. 9190-09) at 1 μg/ml concentration for 60 min at 4° C. Subsequently, the cells were washed three times with cold FACS buffer and analyzed by FACS analysis. All flow cytometric analyses were performed on a BD-LSR flow cytometer (Becton Dickinson) using the Cell Quest software.
# (§2) The binding ability of h15A7H tetravalent antibodies was evaluated in human PSGL-1 SP2/O cells. The h15A7H tetravalent antibody bound positively to the SP2/O-hPSGL-1, but not to parental SP2/O cell lacking of hPSGL-1 antigen (Table A below). Additionally, wild type h15A7H and all of h15A7H tetravalent antibodies gave similar binding activity on SP2/O-hPSGL-1 (Table A).
row,Binder,mean fluorescence intensity [MFI]
1,B1,3950
2,B2,2900
3,B3,3160

# Target: T1, human P-selectin glycoprotein ligand-1 …
# Experiment: cell-based or functional assay
Binder,"Apoptosis % (background subtracted, n = 4), mean, at 0.0625 µg/mL, SP2/O-hPSGL-1 cells, Annexin V/PI [%]","Apoptosis % (background subtracted, n = 4), mean, at 0.5 µg/mL, SP2/O-hPSGL-1 cells, Annexin V/PI [%]"
B1,0.5,30
B2,11.8,26.8
B3,13.5,26.5

# Target: T1, human P-selectin glycoprotein ligand-1 …
# Experiment: flow cytometry on Sp2/0-hPSGL-1 cells, antibody at 3 µg/mL
# Procedure: as §1, §2
row,Binder,mean fluorescence intensity [MFI]
1,B1,4920
2,B2,4630
3,B3,4540

# Target: T1, human P-selectin glycoprotein ligand-1 …
# Experiment: flow cytometry on Sp2/0-hPSGL-1 cells, antibody at 0.3 µg/mL
# Procedure: as §1, §2
row,Binder,mean fluorescence intensity [MFI]
1,B1,6450
2,B2,5410
3,B3,5730

# Target: T1, human P-selectin glycoprotein ligand-1 …
# Experiment: flow cytometry on Sp2/0-hPSGL-1 cells, antibody at 1 µg/mL
# Procedure: as §1, §2
row,Binder,mean fluorescence intensity [MFI]
1,B1,6780
2,B2,6680
3,B3,6260
